Data reported in PMC4104028.
No constants are given. Whether binding was seen depends on the method and setting. In cells and extracts the contact can be indirect. Some results given as binding are weak or reduced against the parent protein; the word gives no strength. For part of these data: Sequences can lack the tags named with a protein.

Protein sequences, listed by entry. Tags and fused reporters are not part of them. Lines headed by an entry give the natural chain unless they say otherwise; changes in a name come on top. Chains listed by the source or under a name are the forms on record and can include a tag or linker. Residues count along the entry.
UniProt Q8C0J2: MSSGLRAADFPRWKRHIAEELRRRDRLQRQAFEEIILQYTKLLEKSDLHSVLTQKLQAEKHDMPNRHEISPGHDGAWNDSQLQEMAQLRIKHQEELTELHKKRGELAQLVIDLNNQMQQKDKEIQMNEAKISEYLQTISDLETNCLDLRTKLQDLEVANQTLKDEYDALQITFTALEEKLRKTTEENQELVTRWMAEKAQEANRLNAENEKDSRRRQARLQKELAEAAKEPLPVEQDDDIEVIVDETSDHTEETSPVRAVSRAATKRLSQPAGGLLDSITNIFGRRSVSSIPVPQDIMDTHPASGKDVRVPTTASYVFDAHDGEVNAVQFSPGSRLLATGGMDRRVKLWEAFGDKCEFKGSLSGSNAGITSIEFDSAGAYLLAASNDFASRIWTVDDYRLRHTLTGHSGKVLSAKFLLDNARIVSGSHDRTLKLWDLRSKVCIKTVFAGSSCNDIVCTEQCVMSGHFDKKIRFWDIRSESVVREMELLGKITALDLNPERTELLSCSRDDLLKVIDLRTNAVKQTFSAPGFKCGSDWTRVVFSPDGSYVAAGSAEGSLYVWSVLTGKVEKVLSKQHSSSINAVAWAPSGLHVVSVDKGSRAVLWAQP
in vitro translated 35S-labeled FLAG-Atg16L1 1–265: residues 1-265 of Q8C0J2
in vitro translated 35S-labeled FLAG-Atg16L1 1–230: residues 1-230 of Q8C0J2
in vitro translated 35S-labeled FLAG-Atg16L1 1–207: residues 1-207 of Q8C0J2
FLAG-Atg16L1 full-length (FL) (Q8C0J2-3, form named): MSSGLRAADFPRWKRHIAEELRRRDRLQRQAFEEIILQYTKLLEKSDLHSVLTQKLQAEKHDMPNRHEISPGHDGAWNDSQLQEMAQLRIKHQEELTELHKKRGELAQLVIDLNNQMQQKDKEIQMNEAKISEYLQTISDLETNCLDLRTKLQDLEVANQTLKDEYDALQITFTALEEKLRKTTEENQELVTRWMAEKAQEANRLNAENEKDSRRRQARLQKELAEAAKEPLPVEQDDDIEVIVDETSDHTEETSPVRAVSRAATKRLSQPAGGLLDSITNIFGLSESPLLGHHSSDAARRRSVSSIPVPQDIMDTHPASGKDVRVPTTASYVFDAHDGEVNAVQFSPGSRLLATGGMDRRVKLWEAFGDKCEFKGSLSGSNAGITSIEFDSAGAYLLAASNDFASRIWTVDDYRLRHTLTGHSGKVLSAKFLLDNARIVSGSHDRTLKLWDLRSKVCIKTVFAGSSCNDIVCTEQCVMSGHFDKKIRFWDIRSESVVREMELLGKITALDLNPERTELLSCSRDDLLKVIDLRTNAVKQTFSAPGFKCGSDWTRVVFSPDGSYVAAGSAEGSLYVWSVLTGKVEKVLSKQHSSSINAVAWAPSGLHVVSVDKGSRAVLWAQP
FLAG-Atg16L1 D212R (not stated (human or mouse cDNA cloned)) (Q8C0J2-3, form named): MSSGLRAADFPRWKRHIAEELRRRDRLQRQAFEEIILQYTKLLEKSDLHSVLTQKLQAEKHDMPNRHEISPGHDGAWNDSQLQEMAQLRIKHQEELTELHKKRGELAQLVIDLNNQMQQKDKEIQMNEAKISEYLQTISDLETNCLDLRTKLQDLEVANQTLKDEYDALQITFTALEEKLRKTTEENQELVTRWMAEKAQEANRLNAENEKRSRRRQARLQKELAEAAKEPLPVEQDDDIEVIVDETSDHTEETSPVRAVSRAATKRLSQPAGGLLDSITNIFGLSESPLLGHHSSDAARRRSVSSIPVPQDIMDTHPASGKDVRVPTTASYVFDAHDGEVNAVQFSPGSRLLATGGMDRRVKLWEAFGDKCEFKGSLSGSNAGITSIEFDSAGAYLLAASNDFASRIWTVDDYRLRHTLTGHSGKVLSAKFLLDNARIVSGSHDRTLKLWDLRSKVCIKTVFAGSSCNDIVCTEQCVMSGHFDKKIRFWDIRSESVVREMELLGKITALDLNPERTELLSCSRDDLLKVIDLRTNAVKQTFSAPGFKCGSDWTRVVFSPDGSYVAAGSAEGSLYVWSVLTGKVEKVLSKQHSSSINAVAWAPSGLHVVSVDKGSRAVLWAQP
FLAG-Atg16L1 E208R (not stated (human or mouse cDNA cloned)) (Q8C0J2-3, form named): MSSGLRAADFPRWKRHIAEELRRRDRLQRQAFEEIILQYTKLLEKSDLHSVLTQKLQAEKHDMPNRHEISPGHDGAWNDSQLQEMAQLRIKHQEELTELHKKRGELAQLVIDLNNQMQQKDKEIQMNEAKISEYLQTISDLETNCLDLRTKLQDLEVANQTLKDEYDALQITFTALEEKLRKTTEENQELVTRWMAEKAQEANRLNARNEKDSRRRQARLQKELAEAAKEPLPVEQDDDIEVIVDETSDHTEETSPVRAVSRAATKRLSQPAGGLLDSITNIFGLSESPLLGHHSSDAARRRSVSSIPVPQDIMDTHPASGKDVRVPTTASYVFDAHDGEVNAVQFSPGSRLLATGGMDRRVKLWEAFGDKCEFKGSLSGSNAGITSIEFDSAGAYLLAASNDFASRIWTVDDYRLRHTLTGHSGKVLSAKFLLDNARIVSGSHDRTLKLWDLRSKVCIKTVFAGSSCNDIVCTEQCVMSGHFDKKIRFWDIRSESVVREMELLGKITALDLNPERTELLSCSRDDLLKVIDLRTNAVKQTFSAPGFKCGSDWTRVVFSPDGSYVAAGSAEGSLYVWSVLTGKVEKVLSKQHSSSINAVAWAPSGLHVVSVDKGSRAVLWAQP
FLAG-Atg16L1 E226R (not stated (human or mouse cDNA cloned)) (Q8C0J2-3, form named): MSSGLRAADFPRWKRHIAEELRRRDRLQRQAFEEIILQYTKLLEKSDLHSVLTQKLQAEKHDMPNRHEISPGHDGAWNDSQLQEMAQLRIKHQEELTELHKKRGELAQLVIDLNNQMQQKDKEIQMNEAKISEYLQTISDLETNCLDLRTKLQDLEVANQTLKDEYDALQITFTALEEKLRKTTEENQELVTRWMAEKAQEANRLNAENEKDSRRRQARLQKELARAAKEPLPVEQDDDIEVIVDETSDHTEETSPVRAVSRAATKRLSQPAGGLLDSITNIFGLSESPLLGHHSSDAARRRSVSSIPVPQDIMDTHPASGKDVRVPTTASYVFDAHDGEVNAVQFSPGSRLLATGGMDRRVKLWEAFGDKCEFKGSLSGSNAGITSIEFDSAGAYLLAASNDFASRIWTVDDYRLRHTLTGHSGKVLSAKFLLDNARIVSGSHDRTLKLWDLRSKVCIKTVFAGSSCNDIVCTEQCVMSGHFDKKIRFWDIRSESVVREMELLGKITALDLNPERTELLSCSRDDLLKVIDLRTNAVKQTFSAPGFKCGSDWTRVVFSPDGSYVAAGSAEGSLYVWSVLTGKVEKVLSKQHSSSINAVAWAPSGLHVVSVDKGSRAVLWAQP
FLAG-Atg16L1 E230R (not stated (human or mouse cDNA cloned)) (Q8C0J2-3, form named): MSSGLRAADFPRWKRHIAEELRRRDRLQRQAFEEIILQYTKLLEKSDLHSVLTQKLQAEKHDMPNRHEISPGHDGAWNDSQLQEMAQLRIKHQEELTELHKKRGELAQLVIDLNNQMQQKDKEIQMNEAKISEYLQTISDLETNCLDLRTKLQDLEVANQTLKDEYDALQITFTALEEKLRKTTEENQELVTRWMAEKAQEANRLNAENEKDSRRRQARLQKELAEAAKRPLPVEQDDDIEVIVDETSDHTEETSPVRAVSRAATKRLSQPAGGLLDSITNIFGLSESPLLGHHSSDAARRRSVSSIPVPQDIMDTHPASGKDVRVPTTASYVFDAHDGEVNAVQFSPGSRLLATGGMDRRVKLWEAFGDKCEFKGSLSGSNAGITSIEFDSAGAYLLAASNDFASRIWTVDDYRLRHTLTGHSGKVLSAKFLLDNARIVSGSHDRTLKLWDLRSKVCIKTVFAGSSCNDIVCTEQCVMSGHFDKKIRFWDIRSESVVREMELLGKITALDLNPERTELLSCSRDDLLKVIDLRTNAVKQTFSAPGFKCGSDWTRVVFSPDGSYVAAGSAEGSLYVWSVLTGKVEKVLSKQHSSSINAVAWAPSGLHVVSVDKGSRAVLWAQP
FLAG-Atg16L1 D237R D239R (DRDR) (not stated (human or mouse cDNA cloned)) (Q8C0J2-3, form named): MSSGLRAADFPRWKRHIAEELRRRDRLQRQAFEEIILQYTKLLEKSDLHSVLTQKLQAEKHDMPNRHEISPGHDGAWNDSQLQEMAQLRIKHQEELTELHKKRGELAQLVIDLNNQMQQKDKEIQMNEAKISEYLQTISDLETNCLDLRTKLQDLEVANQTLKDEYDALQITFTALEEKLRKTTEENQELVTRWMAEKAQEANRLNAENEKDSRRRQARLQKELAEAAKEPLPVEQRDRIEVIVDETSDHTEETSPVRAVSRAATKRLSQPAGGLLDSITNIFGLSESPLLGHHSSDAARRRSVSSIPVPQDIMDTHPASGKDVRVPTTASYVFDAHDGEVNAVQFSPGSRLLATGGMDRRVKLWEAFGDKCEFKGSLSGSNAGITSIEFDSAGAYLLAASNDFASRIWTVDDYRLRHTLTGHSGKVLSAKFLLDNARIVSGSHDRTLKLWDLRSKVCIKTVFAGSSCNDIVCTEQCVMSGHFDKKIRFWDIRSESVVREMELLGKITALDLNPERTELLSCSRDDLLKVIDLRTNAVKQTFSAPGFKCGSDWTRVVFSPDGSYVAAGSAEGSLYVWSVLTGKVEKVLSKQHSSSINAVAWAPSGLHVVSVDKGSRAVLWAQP
FLAG-Atg16L1 E226R E230R (ERER) (not stated (human or mouse cDNA cloned)) (Q8C0J2-3, form named): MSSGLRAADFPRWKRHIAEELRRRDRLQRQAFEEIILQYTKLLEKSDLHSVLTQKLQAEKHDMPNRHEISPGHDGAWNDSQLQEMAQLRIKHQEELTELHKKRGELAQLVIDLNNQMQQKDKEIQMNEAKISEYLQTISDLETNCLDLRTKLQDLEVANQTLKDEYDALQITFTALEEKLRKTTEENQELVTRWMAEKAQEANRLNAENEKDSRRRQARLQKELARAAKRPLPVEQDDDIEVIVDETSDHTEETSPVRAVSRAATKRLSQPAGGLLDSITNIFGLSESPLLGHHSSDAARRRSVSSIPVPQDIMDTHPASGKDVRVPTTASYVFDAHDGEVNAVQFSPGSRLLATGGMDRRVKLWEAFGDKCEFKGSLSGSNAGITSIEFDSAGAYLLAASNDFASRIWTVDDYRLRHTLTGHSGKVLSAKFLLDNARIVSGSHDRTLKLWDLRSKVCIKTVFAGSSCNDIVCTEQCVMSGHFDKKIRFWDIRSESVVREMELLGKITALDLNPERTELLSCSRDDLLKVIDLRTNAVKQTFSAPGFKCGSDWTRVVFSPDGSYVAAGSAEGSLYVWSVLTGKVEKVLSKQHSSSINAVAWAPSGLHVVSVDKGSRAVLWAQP
UniProt Q8TDY2: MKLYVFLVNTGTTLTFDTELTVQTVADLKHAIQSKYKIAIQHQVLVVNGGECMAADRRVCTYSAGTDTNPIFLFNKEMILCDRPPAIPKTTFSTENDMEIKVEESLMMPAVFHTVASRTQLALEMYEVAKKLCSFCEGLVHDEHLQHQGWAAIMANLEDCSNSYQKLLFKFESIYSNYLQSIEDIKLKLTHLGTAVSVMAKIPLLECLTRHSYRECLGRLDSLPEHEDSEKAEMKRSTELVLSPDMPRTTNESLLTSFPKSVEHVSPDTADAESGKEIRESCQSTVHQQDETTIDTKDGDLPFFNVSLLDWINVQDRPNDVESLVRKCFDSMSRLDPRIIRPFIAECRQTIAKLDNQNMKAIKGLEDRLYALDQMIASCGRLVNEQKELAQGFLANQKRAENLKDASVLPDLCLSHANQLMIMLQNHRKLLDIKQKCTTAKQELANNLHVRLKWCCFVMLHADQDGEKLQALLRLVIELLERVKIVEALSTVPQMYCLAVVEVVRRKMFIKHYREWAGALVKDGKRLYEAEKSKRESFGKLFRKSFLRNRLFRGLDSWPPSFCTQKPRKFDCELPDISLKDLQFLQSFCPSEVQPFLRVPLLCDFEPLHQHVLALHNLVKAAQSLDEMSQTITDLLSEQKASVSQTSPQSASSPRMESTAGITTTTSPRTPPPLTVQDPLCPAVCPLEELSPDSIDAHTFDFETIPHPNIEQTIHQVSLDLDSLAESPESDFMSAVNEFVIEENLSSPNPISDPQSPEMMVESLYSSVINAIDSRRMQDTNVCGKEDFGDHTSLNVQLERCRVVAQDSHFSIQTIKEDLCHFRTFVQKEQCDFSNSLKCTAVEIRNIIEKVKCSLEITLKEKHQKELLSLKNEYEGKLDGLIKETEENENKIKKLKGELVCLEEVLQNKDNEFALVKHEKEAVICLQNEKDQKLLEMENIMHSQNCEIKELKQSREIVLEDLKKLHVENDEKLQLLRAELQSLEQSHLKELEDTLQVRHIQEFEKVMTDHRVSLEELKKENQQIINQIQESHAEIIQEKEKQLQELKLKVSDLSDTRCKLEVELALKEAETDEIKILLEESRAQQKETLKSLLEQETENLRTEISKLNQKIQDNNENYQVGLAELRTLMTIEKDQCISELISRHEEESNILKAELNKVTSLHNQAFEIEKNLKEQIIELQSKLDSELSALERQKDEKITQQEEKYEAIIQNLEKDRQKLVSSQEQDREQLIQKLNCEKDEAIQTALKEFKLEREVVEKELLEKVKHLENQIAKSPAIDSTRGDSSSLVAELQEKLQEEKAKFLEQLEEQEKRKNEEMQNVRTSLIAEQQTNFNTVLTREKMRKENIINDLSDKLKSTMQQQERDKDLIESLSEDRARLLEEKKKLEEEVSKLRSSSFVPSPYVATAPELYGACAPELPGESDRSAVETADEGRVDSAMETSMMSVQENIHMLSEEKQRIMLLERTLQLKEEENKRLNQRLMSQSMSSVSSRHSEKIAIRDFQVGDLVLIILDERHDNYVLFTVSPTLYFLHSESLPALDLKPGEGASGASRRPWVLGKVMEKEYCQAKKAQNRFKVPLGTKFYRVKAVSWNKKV

What was measured:
GFP-WIPI1a [1] = target: T1, GFP-WIPI1a (UniProt Q5MNZ9); assay: co-IP; lysates of HEK293A cells expressing GFP-tagged WIPI proteins mixed with lysates of HEK293A cells expressing FLAG-Atg16L1, its mutants or Atg16L2; GFP-TRAP; immunoblot
T1 sequence: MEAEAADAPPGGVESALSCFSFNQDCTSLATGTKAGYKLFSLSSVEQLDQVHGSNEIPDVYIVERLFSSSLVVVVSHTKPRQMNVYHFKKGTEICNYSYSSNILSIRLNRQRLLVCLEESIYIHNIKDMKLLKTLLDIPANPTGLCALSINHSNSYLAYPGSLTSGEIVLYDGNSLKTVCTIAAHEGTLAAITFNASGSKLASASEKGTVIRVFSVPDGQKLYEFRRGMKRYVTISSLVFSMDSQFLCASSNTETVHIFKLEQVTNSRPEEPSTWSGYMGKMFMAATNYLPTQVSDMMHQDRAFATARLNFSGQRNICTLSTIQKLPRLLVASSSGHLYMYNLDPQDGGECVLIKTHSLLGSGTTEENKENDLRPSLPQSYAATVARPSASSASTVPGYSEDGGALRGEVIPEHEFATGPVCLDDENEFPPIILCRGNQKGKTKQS

GFP-WIPI1a [2] = target: T1, GFP-WIPI1a; assay: co-IP; GFP-Trap from lysates of HEK293A cells stably or transiently expressing GFP-tagged WIPI proteins; endogenous partners by immunoblot; full medium or EBSS 2 hr in Figure 1A
GFP-WIPI4 = target: T2, GFP-WIPI4 (UniProt Q9Y484); assay: as above
T2 sequence: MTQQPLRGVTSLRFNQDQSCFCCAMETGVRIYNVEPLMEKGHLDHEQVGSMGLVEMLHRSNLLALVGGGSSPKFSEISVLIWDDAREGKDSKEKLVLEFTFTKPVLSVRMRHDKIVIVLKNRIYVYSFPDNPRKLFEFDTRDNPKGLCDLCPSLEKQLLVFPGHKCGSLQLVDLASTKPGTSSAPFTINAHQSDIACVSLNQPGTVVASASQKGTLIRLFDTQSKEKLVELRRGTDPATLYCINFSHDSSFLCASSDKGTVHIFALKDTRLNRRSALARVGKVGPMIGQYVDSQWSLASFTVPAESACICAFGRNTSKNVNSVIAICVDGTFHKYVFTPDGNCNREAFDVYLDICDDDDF

[3] = target: FLAG-Atg16L1 D212R (not stated (human or mouse cDNA cloned)) (UniProt Q8C0J2); assay: co-IP; lysates of HEK293A cells transiently expressing FLAG-Atg16L2, FLAG-Atg16L1 or mutants; FLAG M2 agarose beads; endogenous FIP200 by immunoblot
[4] = target: FLAG-Atg16L1 E208R (not stated (human or mouse cDNA cloned)) (UniProt Q8C0J2); assay: as above
[5] = target: FLAG-Atg16L1 E226R (not stated (human or mouse cDNA cloned)) (UniProt Q8C0J2); assay: as above
[6] = target: FLAG-Atg16L1 E230R (not stated (human or mouse cDNA cloned)) (UniProt Q8C0J2); assay: as above
[7] = target: FLAG-Atg16L1 full-length (FL) (mouse) (UniProt Q8C0J2); assay: as above
FLAG-Atg16L2 = target: T3, FLAG-Atg16L2 (UniProt Q6KAU8); assay: as above
T3 sequence: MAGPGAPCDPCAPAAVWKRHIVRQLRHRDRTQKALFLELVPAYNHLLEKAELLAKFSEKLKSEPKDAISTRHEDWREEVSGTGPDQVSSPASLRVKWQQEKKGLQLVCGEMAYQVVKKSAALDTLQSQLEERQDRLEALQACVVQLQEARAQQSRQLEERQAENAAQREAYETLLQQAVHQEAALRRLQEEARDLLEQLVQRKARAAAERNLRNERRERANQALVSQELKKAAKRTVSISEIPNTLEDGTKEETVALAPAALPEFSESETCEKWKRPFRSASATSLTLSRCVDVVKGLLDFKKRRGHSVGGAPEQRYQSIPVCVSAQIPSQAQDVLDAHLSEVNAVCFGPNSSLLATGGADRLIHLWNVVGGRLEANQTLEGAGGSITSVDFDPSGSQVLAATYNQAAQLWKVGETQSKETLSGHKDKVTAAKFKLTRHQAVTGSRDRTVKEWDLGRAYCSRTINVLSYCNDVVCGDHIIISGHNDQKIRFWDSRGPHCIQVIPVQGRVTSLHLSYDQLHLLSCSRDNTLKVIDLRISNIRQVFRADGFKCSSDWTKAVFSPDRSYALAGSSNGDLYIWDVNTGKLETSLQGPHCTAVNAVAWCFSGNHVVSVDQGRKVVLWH

[8] = target: FLAG-Atg16L1 D237R D239R (DRDR) (not stated (human or mouse cDNA cloned)) (UniProt Q8C0J2); assay: co-IP; HEK293 cells stably expressing GFP-WIPI2b, transiently transfected with FLAG-Atg16L1 WT, ERER or DRDR; bound and input by immunoblot; which tag was precipitated is not told
[9] = target: FLAG-Atg16L1 E226R E230R (ERER) (not stated (human or mouse cDNA cloned)) (UniProt Q8C0J2); assay: as above
[10] = target: FLAG-Atg16L1 full-length (FL) (mouse) (UniProt Q8C0J2); assay: as above
GFP-WIPI1a [11] = target: T1, GFP-WIPI1a; assay: pull-down; GFP-tagged proteins expressed in HEK293A, isolated on GFP-TRAP, incubated with in vitro translated 35S-labeled FLAG-Atg16L1 constructs, washed; autoradiography; only the target purified

With “FLAG-Atg16L1 full-length (FL) (from UniProt Q8C0J2-3 1-623)” the binding (GFP-WIPI1a [1]) was “binds weakly”.

“endogenous Atg16L1 (HEK293A) (from UniProt Q676U5 1-607)” was tested, and the binding (GFP-WIPI1a [2]) was “no binding” and the binding (GFP-WIPI4) was “no binding”.

In the case of “endogenous FIP200 (HEK293A) (from UniProt Q8TDY2 1-1594)”, the binding [3] is reported as “binds”, the binding [4] is reported as “binds” and the binding [5] is reported as “binds”. The binding [6] was “binds”, the binding [7] was “binds” and the binding (FLAG-Atg16L2) was “no binding”. The binding [8] was “no binding”, the binding [9] was “binds” and the binding [10] was “binds”.

For “in vitro translated 35S-labeled FLAG-Atg16L1 1–207 (from UniProt Q8C0J2-3 1-207) (domain or fragment)”, the binding (GFP-WIPI1a [11]) was “no binding”.

“in vitro translated 35S-labeled FLAG-Atg16L1 1–230 (from UniProt Q8C0J2-3 1-230) (domain or fragment)” was tested, and the binding (GFP-WIPI1a [11]) was “binds”.

“in vitro translated 35S-labeled FLAG-Atg16L1 1–265 (from UniProt Q8C0J2-3 1-265) (domain or fragment)” was tested, and the binding (GFP-WIPI1a [11]) was “binds weakly”.
